In PubChem BioAssay AID485360 (National Center for Advancing Translational Sciences (NCATS), 2010):
Among all 230,000 compounds or so, about 1,500 (0.65%) were called active. Inconclusive results, whose numbers are uncertain, are shown with a selection of clear calls. The call rests on the fitted dose curve; in most records, active means well fitted inhibition curve with a large enough effect; inconclusive means small, poorly fitted or top-dose-only effect; inactive means no such curve, though single readings can be large or run the other way. Potencies of inconclusive entries are doubtful fits and often do not repeat.

The compounds below were run against Lethal(3)malignant brain tumor-like protein 1 (Homo sapiens) (UniProt Q9Y468) (assay: qHTS Assay for the Inhibitors of L3MBTL1). Details: AlphaScreen L3MBTL1–H3K9me1 peptide binding; activity, negative = inhibition: at 57.1 µM (top of the series).
Method in brief: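 AlphaScreen assay: L3MBTL1 (50 nM final) was preincubated 30 min at room temperature with biotinylated H3(1-15)K9me1 peptide (75 nM final), then 30 min with library compounds; streptavidin donor and nickel chelate acceptor beads (10 ug/mL final) added, 30 min dark.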
Further: nearly all actives have a fitted effect of over 60% in size.
On the % scale 0 is the no-effect control and ±100 the full control effect; potency means the concentration at half of the fitted maximal effect; tags describe the fitted curve by direction and shape.

UniProt Q9Y468, sequence (Q9Y468 whole entry, looked up): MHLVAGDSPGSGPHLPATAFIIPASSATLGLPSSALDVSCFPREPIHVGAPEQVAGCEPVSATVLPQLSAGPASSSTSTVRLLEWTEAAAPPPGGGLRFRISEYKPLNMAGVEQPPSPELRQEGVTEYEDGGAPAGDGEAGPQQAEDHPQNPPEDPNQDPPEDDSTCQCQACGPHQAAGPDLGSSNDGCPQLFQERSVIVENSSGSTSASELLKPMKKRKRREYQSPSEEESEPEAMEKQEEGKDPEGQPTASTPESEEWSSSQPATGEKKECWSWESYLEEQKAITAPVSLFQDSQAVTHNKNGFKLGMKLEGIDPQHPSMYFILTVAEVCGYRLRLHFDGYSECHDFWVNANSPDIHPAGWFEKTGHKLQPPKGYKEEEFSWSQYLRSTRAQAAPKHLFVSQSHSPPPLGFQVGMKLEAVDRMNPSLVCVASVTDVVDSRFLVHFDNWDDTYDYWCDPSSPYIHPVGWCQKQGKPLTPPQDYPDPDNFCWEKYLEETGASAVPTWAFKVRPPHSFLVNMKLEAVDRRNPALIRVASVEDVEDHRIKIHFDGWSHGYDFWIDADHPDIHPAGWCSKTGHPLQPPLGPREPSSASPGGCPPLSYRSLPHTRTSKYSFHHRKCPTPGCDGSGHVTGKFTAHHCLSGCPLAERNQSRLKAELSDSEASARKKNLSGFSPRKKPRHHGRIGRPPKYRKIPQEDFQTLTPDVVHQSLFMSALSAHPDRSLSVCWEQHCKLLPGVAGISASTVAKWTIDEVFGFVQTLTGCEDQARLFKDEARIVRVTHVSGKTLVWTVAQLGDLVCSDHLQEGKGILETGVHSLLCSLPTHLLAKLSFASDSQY

Q: With `CC(=O)c1cccc(NC(=O)COC(=O)c2cccs2)c1` as the compound, how does the Potency read?
A: inconclusive: 39.8 µM [inhibitor, partial curve, poor fit]

Q: How did the Potency turn out when `COC(=O)c1nc2n(n1)C(c1ccc(OC)c(OC)c1OC)C1=C(CCCC1=O)N2` (configuration not stated) was run?
A: inconclusive: 2 µM [inhibitor, single point]

Q: With `Cc1ccc2cc(/C=N/NC(=O)CN3CCCCC3)c(Cl)nc2c1` as the compound, how does the Potency read?
A: inconclusive: 0.1 µM [inhibitor, full curve]

Q: `O=C1CC(Nc2ccc(N3CCOCC3)cc2)C(=O)N1c1cccc(C(F)(F)F)c1` (configuration not stated) was tested. Which Potency did it give?
A: inconclusive: 17.8 µM [inhibitor, single point]

Q: For `CC1CCCCN1CCCNc1ccc(C(CC(N)=O)NC(=O)Cc2cccc3ccccc23)cc1[N+](=O)[O-]` (configuration not stated), which “activity, negative = inhibition” value is on record?
A: inactive: 6.63%

Q: For `O=C(NCc1ccco1)C1c2ccccc2Oc2ccccc21`, which Potency is on record?
A: inconclusive: 22.4 µM [inhibitor, single point]

Q: With `Cn1c(=O)c(Nc2ccc(O)cc2)c2c3c(cccc31)C(=O)c1ccccc1-2` as the compound, how does the Potency read?
A: active: 25.1 µM

Q: For `CCOCCn1c(SCCCc2ccccc2)nc2c1c(=O)[nH]c(=O)n2C`, which “activity, negative = inhibition” value is on record?
A: inactive: 1.98%

Q: How did the “activity, negative = inhibition” value turn out when `CN1CCN(NC(=O)c2cccc3ccccc23)CC1` was run?
A: inactive: 4.33%

Q: For `COCCNC(=S)N/N=C/c1ccc(N2CCOCC2)cc1`, which “activity, negative = inhibition” value is on record?
A: inactive: -5.18%

Q: How did the Potency turn out when `O=[N+]([O-])c1ccccc1C1Nc2cccc3cccc(c23)N1` was run?
A: inconclusive: 35.5 µM [inhibitor, single point]

Q: For `CN(C)S(=O)(=O)c1ccc(C(=O)Nc2nnc(SCc3ccccc3)s2)cc1`, which “activity, negative = inhibition” value is on record?
A: inactive: -1.57%

Q: How did the “activity, negative = inhibition” value turn out when `O=S(=O)(c1ccccc1)N1CCC(N2CCCCCC2)CC1` was run?
A: inactive: 6.47%

Q: How did the Potency turn out when `O=C(CSc1nc2[nH]ncc2c(=O)[nH]1)N1CCCC1` was run?
A: inconclusive: 6.31 µM [inhibitor, single point]

Q: For `O=C(CCCCl)NC(=S)Nc1ccc(N2CCOCC2)cc1`, which “activity, negative = inhibition” value is on record?
A: inactive: 3.77%

Q: With `Cc1ccc(C(=O)N/N=C/c2ccc(-c3cccc(Cl)c3)o2)cn1` as the compound, how does the “activity, negative = inhibition” value read?
A: inactive: -5.99%

Q: `O=C(CSCC(=O)OCn1nnc2ccccc2c1=O)Nc1ccc(Cl)cc1` was tested. Which “activity, negative = inhibition” value did it give?
A: inactive: 3.12%

Q: Which Potency does the source give for `S=c1[nH]nc(-c2cccnc2)n1/N=C/c1ccco1` here?
A: inconclusive: 20 µM [inhibitor, single point]

Q: With `CN(Cc1ccco1)C(=O)CN1C(=O)NC(c2ccccc2)(c2ccccc2)C1=O` as the compound, how does the Potency read?
A: inconclusive: 35.5 µM [inhibitor, single point]

Q: `CC(C)Oc1ccccc1/C=N/Nc1ccccc1[N+](=O)[O-]` was tested. Which Potency did it give?
A: active: 11.2 µM

Q: `CN(C(=S)Nc1ccc(Oc2ccccc2)cc1)c1ccc(O)cc1` was tested. Which Potency did it give?
A: inconclusive: 35.5 µM [inhibitor, partial curve]

Q: How did the “activity, negative = inhibition” value turn out when `CCOC(=O)C1(Cc2ccccc2C)CCCN(S(=O)(=O)CC)C1` (configuration not stated) was run?
A: inactive: 2.29%

Q: For `O=C1NCCOC(=O)[C@@H](Cc2ccc(F)cc2)CC/C=C/C[C@H]1CC(=O)N(CCO)Cc1ccccc1`, which “activity, negative = inhibition” value is on record?
A: inactive: 5%

Q: Which Potency does the source give for `O=C(N/N=C\C=C\c1ccco1)c1cc(-c2ccc3ccccc3c2)n[nH]1` here?
A: inconclusive: 39.8 µM [inhibitor, partial curve]

Q: For `Cc1ccc(NC(=O)CSc2nnc(C)c(=O)n2N)c(C)c1`, which Potency is on record?
A: inconclusive: 1 µM [inhibitor, full curve]

Q: With `Nn1c(SCc2ccccc2F)nnc1-c1ccccn1` as the compound, how does the Potency read?
A: inconclusive: 22.4 µM [inhibitor, partial curve]

Q: How did the Potency turn out when `Oc1c(/C=C/C=C/C=Nc2ccccc2)sc(=S)n1Cc1ccccc1` was run?
A: inconclusive: 2.82 µM [inhibitor, full curve, poor fit]

Q: Which Potency does the source give for `CCOC(=O)NCCOC(=O)Nc1ccc(Cl)cc1` here?
A: inconclusive: 0.708 µM [inhibitor, partial curve, poor fit]

Q: Which “activity, negative = inhibition” value does the source give for `COc1ccc(CN(CC2CCCO2)S(=O)(=O)c2ccc(-n3cnnn3)c(OC)c2)cc1` (configuration not stated) here?
A: inactive: -2.91%

Q: With `C=CCNC(=S)NNC(=O)COc1ccc(Cl)cc1Cl` as the compound, how does the “activity, negative = inhibition” value read?
A: inactive: -6.87%

Q: `Cn1cnc2c1c(=O)n(Cc1ccc(F)cc1Cl)c(=O)n2C` was tested. Which activity, negative = inhibition did it give?
A: inactive: -2.56% [at 11.4 µM]

Q: With `COc1cccc(-n2nnc3c(=O)n(CC(=O)N4CCC(C)CC4)cnc32)c1` as the compound, how does the “activity, negative = inhibition” value read?
A: inactive: -7.86%

Q: `COCCNC(=S)Nc1ccc2nsnc2c1` was tested. Which “activity, negative = inhibition” value did it give?
A: inactive: 1.46%

Q: Which Potency does the source give for `O=C1C2C3c4ccccc4C(c4ccccc43)C2c2nc3ccccc3n21` (configuration not stated) here?
A: inconclusive: 8.91 µM [inhibitor, single point]

Q: Which Potency does the source give for `Cc1occc1C(=O)NN=C1C2CC3CC(C2)CC1C3` here?
A: inconclusive: 5.62 µM [inhibitor, single point]

Q: How did the Potency turn out when `Cc1cccc(C)c1NC(=O)CN(C)C(=O)c1ccc2nc[nH]c2c1` was run?
A: inconclusive: 31.6 µM [inhibitor, single point]

Q: How did the Potency turn out when `COC(=O)c1sc(N)c(C(=O)OC)c1COC(=O)C1CC(=O)N(Cc2ccco2)C1` (configuration not stated) was run?
A: inconclusive: 39.8 µM [inhibitor, single point]
